Assay results published in PubChem BioAssay AID488969 (Vanderbilt High Throughput Screening Facility, 2010).
Whole data set: some 110,000 compounds, median “z-score” near -0.1, cut for the highest 2% near 2. The list shows a part of the results. Active and inactive are the calls of the source.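 Rule for the calls: active = z-score in the third read window above 3 or below -3; inactive = the rest.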

molecular target: Metabotropic glutamate receptor 8 (Rattus norvegicus) (UniProt P70579); assay: rat mGluR8 modulators via GIRK flux, primary screen, cell-based, thallium flux, HTS (AID 488969); details: HEK293 rat mGluR8, GIRK (G protein-gated inwardly rectifying potassium channel) thallium flux, FluoZin2; at 10 µM; stronger effect = higher value; submaximal glutamate (EC20) added with thallium
Sequence of UniProt P70579 (P70579 whole entry, looked up): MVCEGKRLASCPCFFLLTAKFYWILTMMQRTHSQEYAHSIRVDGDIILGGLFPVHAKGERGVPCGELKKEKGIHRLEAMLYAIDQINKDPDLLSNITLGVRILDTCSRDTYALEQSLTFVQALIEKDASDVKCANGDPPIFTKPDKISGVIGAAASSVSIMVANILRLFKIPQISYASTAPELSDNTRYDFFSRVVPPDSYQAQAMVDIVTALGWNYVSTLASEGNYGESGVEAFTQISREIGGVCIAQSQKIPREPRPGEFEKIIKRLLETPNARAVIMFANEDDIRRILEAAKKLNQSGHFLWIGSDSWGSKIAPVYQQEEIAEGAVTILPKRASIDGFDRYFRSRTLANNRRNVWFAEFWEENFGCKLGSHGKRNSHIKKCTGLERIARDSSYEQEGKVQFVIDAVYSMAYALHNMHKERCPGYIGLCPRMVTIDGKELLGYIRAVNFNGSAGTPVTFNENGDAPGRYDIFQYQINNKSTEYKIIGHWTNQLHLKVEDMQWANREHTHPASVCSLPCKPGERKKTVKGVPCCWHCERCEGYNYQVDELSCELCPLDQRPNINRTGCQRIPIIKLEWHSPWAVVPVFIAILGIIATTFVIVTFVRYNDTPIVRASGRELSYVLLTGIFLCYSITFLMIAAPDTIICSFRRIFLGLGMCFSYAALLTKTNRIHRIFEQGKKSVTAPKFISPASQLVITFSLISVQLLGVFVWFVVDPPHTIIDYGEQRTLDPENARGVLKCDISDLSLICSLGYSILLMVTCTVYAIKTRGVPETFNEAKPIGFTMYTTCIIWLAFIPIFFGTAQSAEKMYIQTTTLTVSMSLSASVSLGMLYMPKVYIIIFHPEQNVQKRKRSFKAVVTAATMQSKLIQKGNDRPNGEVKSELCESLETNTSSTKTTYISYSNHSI

Compared with `COc1cccc(C2=CC(c3ccc(N(C)C)cc3)n3nnnc3N2)c1` (stereo not drawn), `COC(=O)C1=C(C(=O)c2ccc(C)cc2)C(c2ccccc2)n2nnnc2N1` (stereo not drawn) is higher in z-score: -1.05 for the first, 0.991 for the second.

Compared with `CCOC(=O)CC(=O)CSc1nc(-c2cccnc2)cc(C)c1C#N`, `CCOC(=O)Cc1cnc(NC(=O)NC(C(=O)OCC)(c2ccccc2)C(F)(F)F)s1` (stereo not drawn) is lower in z-score: -0.14 for the first, -1.01 for the second.

First: CCOC(=O)N1CCN(S(=O)(=O)c2ccc(OC)c(OC)c2)CC1
Second: CCOC(=O)N1CCN(C(=O)C2CCCN(S(=O)(=O)c3ccccc3)C2)CC1 (stereo not drawn)
The z-score of the first is lower: 0.0307 for the first, 0.145 for the second.

Going from `Cc1nn(-c2ccccc2)c(N2CCCC2)c1/C=N/NC(=S)Nc1cc(C(F)(F)F)ccc1Cl` to `CS(=O)(=O)N(CC(=O)N1CCN(c2ccccc2F)CC1)c1cccc(C(F)(F)F)c1`, the z-score rises from 0.394 to 0.48.

Going from `O=C(CCC(=O)Nc1ccccc1)NNC(=O)C(c1ccccc1)c1ccccc1` to `O=C(NC(NC(=O)c1ccccc1)c1ccccc1)c1ccccc1`, the z-score falls from 0.336 to -0.164.

Compared with `O=C(Nc1ccc(N=Nc2ccccc2)c(NC(=O)C2CCCO2)c1)C1CCCO1` (stereo not drawn), `O=C(CNCC1CCCO1)Nc1ccccc1-n1cccc1` (stereo not drawn) is higher in z-score: -0.264 for the first, 0.0521 for the second.

First: CCOCC(=O)Nc1cccc(NC(C)=O)c1
Second: CC(=O)SCCC(=O)Nc1ccccc1
The z-score of the first is lower: -0.0753 for the first, 0.0793 for the second.

Going from `O=c1[nH]c(SCc2ccc(F)cc2)nc2c1cnn2-c1ccc(F)cc1` to `O=C(c1cccs1)n1nc(-c2ccccc2)nc1NCc1ccc(F)cc1`, the z-score falls from 0.203 to 0.00719.

Compared with `Cc1c(C(=O)NCCCN2CCOCC2)sc2nc(-c3ccc(F)cc3)cn12`, `Cc1ccc(N2C(=O)c3ccc(C(=O)NCCN4CCOCC4)cc3C2=O)cc1` is higher in z-score: -0.691 for the first, 0.0183 for the second.

Going from `CCN(CC)S(=O)(=O)c1cc(C(=O)n2cccn2)c(Cl)cc1Cl` to `O=S(=O)(O)c1nc2ccccc2n1Cc1ccc(Cl)cc1Cl`, the z-score rises from -2.33 to 0.25.

Going from `CCOC(=O)c1ccc(N2C(=O)c3n[nH]c(C)c3C2c2ccccn2)cc1` (stereo not drawn) to `CCOc1ccc(/C(O)=C2/C(=O)C(=O)N(c3nc(C)c(C)s3)C2c2ccco2)cc1` (stereo not drawn), the z-score falls from -0.296 to -1.12.

Compared with `c1ccc(Cn2c(Nn3cnnc3)nc3ccccc32)cc1`, `CC(C)N(C(=O)CSc1nc2ccccc2n1Cc1ccccc1F)C(C)C` is lower in z-score: -0.451 for the first, -0.509 for the second.

Compared with `CC(=O)Nc1ccc(NC(=O)Cn2c(-c3ccc(F)cc3)cnc2SCC(=O)Nc2c(C)cccc2C)cc1`, `CCOc1ccc(NC(=O)CCC(=O)c2ccc(-c3ccccc3)cc2)cc1` is lower in z-score: -0.103 for the first, -1.21 for the second.

First: COc1ccc(NC(=O)C(C)SCc2ccccc2)cc1OC (stereo not drawn)
Second: COC(=O)CSc1nnc(CNC(=O)Cc2ccccc2)n1-c1ccccc1OC
The z-score of the first is higher: 5.74e-05 for the first, -0.273 for the second.

First: Cc1nc(SCC(=O)c2cccs2)c2oc3ccccc3c2n1
Second: Cc1cccc2c1NC(=O)/C2=C\C(=O)c1cccs1
The z-score of the first is higher: 0.397 for the first, 0.0938 for the second.

Going from `CCC1(C)Cc2c(C#N)c(N)n(-c3ccccc3)c(=O)c2CO1` (stereo not drawn) to `Cc1cc(C(=O)CN2C(=O)NC(C)(c3ccccc3)C2=O)c(C)n1CC1CCCO1` (stereo not drawn), the z-score rises from 0.181 to 1.28.

First: Cc1cc(C)nc(/N=C(/NC(=O)c2ccccc2)Nc2ccccc2)n1
Second: Cc1ccc(C(=O)NNC(=O)Cc2ccccc2)cc1
The z-score of the first is lower: -0.181 for the first, 0.357 for the second.

First: COC(=O)c1ccc(OC)c(CSc2nnc(-c3ccc(C(C)(C)C)cc3)o2)c1
Second: COC(=O)c1cc(OC)c(OC)cc1NC(=O)c1ccc(C)cc1
The z-score of the first is higher: -0.0694 for the first, -0.296 for the second.

Compared with `COc1ccc(-c2ccc(OC)cc2C(=O)O)cc1`, `COc1ccc(CNC(=O)c2ccc(SC)cc2OC)cc1` is lower in z-score: -0.165 for the first, -0.295 for the second.

Compared with `CC(C)(C)c1cc(NC(=O)COC(=O)c2ccc3c(=O)n4c(nc3c2)CCC4)n(-c2ccccc2)n1`, `CCOC(=O)c1ccc(NS(=O)(=O)c2ccc3c(c2)CCCN3C(C)=O)cc1` is higher in z-score: -0.264 for the first, 0.0549 for the second.

Going from `Cc1cccc(OCC(=O)Nc2cc(C)ccc2O)c1` to `Cc1cccc(OCC(=O)N2CCN(C(=O)Cc3ccccc3)CC2)c1`, the z-score rises from -0.0375 to 0.121.

Compared with `Cn1c(=O)[nH]c(=O)c2c1nc(SCCN1CCCCC1)n2Cc1ccccc1`, `Cc1ccc(/C(O)=C2/C(=O)C(=O)N(CCN3CCOCC3)C2c2cccs2)cc1` (stereo not drawn) is lower in z-score: 0.113 for the first, -0.157 for the second.

First: CCC(c1nnc(SCC(=O)N2CC3(C)CC2CC(C)(C)C3)o1)N(C)C (stereo not drawn)
Second: CCN(C(=O)CSc1nnc(Nc2ccccc2C)s1)C1CCS(=O)(=O)C1 (stereo not drawn)
The z-score of the first is higher: -0.157 for the first, -0.257 for the second.

First: CCOC(=O)C1CCCN(Cc2ccc(OCC)cc2)C1 (stereo not drawn)
Second: CCN1CCN(CC(O)COc2ccc(Cl)cc2)CC1 (stereo not drawn)
The z-score of the first is higher: -0.133 for the first, -0.424 for the second.

First: CC(=O)NC(CCS(C)(=O)=O)C(=O)Nc1cc(C)on1 (stereo not drawn)
Second: Cc1cc(NC(=O)c2cc(C)on2)no1
The z-score of the first is lower: -0.111 for the first, 0.372 for the second.

Compared with `CC1(C)C2([N+](=O)[O-])CN(CCO)CC1([N+](=O)[O-])CN(CCO)C2`, `O=C(Nn1cnnc1)c1cc([N+](=O)[O-])cc([N+](=O)[O-])c1` is lower in z-score: -0.161 for the first, -0.286 for the second.

Going from `COc1ccc(C(=O)Nc2cc3c(cc2C#N)OCO3)cc1S(=O)(=O)NCc1ccco1` to `COc1cccc(C(=O)NNC(=O)Cc2ccc([N+](=O)[O-])cc2)c1`, the z-score falls from 0.147 to -0.123.

Going from `CS(=O)(=O)N(Cc1ccccc1)c1ccc(C(=O)Nc2cccnc2)cc1` to `COC(=O)CN(c1ccccc1)S(=O)(=O)c1ccc(F)cc1`, the z-score falls from 0.0978 to -0.167.

Compared with `Cn1nc(OC(=O)Nc2cccc(Cl)c2)cc1C(F)(F)F`, `Cc1n[nH]c(=O)n1-c1cccc(C(F)(F)F)c1` is lower in z-score: 0.674 for the first, -0.651 for the second.

First: CCc1n[nH]c(=S)n1/N=C/c1ccc2c(c1)OCO2
Second: Cc1oc(/N=C/c2ccc3c(c2)OCO3)c(C#N)c1C
The z-score of the first is lower: 0.512 for the first, 1.4 for the second.

First: c1ccc2c(-c3nc(-c4ccncc4)no3)cccc2c1
Second: CC1CCN(c2oc(-c3cccc4ccccc34)nc2C#N)CC1
The z-score of the first is lower: -0.386 for the first, 0.305 for the second.

First: COc1ccc(OCc2nn3c(-c4cccc(OC)c4)nnc3s2)cc1
Second: CN(C)CCN1C(=O)C(=O)/C(=C(/O)c2ccc(OCc3ccccc3)cc2)C1c1ccncc1 (stereo not drawn)
The z-score of the first is higher: -0.159 for the first, -0.382 for the second.

Compared with `Cc1ccc(S(=O)(=O)N2CCC(C(=O)NCc3cccnc3)CC2)cc1`, `CCOc1ccc(NC(=O)CCN2CCN(S(=O)(=O)c3ccc(Cl)cc3)CC2)cc1` is lower in z-score: -0.0997 for the first, -0.361 for the second.

Compared with `CCOC(=O)c1sc(SC)c(C(C)=O)c1C`, `CCOC(=O)c1c(-n2cnnn2)sc(C)c1C` is higher in z-score: -0.429 for the first, 0.69 for the second.

Going from `Cc1cc(NC(=O)c2ccc(N3C(=O)CCC3=O)cc2)no1` to `Cc1cc(C)n(-c2ccc(C(=O)Nc3nnc(C4CC4)s3)cc2)n1`, the z-score falls from 0.412 to 0.129.

Going from `COc1nc(Nc2ccc(C(C)C)cc2)nc(OC)n1` to `Cc1cc(C)cc(Nc2cc(C)nc3nc(C)nn23)c1`, the z-score rises from -0.553 to 0.398.

Compared with `CCc1nnc(NS(=O)(=O)c2ccc(N/C=C\C(=O)c3ccc(C)cc3)cc2)s1`, `C=CCNC(=O)c1ccc(N(C)S(=O)(=O)c2ccc(OC)cc2)cc1` is higher in z-score: -0.133 for the first, 0.0482 for the second.

First: CN(C)c1ccc(NS(=O)(=O)c2cc(Cl)ccc2Cl)cc1
Second: O=S(=O)(Cc1ccc(Cl)cc1)c1ccccc1-c1nnc(-c2ccc(Cl)cc2)o1
The z-score of the first is lower: -0.322 for the first, -0.0549 for the second.

First: Cc1sc(N/N=C/c2cccs2)nc1-c1ccccc1
Second: C/C(=N\Nc1nc2ccccc2[nH]1)c1ccc(C)o1
The z-score of the first is higher: 0.0575 for the first, -0.539 for the second.

Compared with `Cc1ccccc1C(=O)Nc1cc(S(=O)(=O)N2CCCCC2)ccc1N1CCN(C)CC1`, `O=C(NC1CCCCC1)n1c(=O)oc2cc(S(=O)(=O)N3CCCCC3)ccc21` is higher in z-score: 0.00679 for the first, 0.357 for the second.

Going from `Cn1c(SCC(=O)NCc2ccc3c(c2)OCO3)nc2scc(-c3cccs3)c2c1=O` to `Cc1cc(C(=O)NC(C)c2ccc3c(c2)OCO3)cs1` (stereo not drawn), the z-score rises from -0.911 to 0.0632.

Compared with `COc1ccc(CCNC(=O)C2CC(c3ccc([N+](=O)[O-])cc3)=NO2)cc1` (stereo not drawn), `COc1ccc([N+](=O)[O-])cc1NCc1ccccc1C` is lower in z-score: -0.16 for the first, -0.176 for the second.

Compared with `CC(C)(C)C(=O)C(Cc1ccccc1)n1cncn1` (stereo not drawn), `CCOC(=O)/C(C(N)=NC(C)C)=C(\O)c1ccccc1` is lower in z-score: 0.606 for the first, 0.0345 for the second.

Going from `O=C(CN1CCN(c2ncc(C(F)(F)F)cc2Cl)CC1)NCCNc1ncc(C(F)(F)F)cc1Cl` to `O=C(NCc1ccc(N2CCCC2=O)cc1)Nc1cccc(Cl)c1`, the z-score rises from -0.0224 to 0.0224.

Compared with `COc1ccccc1NC(=O)CN1C(=O)C(C)SC(C)C1=O` (stereo not drawn), `Cc1ccc(NC(=O)CSc2nc3c(c(=O)[nH]2)CCC3)cc1C` is lower in z-score: -0.296 for the first, -0.406 for the second.

Compared with `COCCOC(=O)C1=C(C)NC2=C(C(=O)CC(C)(C)C2)C1c1ccc2c(c1)OCO2` (stereo not drawn), `O=S(=O)(NCc1cn2ccsc2n1)c1ccc2c(c1)OCCO2` is higher in z-score: -0.115 for the first, -0.0846 for the second.

Compared with `O=C(C1CCCN(S(=O)(=O)c2cccs2)C1)N1CCc2ccccc2C1` (stereo not drawn), `Cc1cccc(N/C=C/C(=O)c2cccs2)c1C` is higher in z-score: -0.502 for the first, -0.185 for the second.

Compared with `N#CC1=C(N)Oc2n[nH]c(CSc3ccccc3)c2C12C(=O)Nc1ccccc12` (stereo not drawn), `O=C(CCn1nnc2ccccc2c1=O)N[C@H](C(=O)O)c1ccccc1` is lower in z-score: -0.485 for the first, -1.23 for the second.

First: CC1(C)NC(=O)N(CCOCCOc2c(Cl)cc(Cl)cc2Cl)C1=O
Second: COCCN1C(=O)c2ccccc2C(C(=O)NCC2CCCO2)C1c1c[nH]c2ccccc12 (stereo not drawn)
The z-score of the first is lower: -0.413 for the first, -0.121 for the second.

Going from `Cc1cccc(-n2c(C)cc(/C=N/NC(=O)c3ccc(CN4CCOCC4)cc3)c2C)c1` to `Cc1cc2c(N=NC(=O)CCc3ccccc3)c(O)[nH]c2cc1Br`, the z-score falls from 0.529 to 0.474.

Going from `Cc1cc(=O)[nH]c(SCC(=O)Nc2ccc(C(=O)O)cc2)n1` to `Cc1ccc2nc(C)c(Cl)c(=O)n2c1`, the z-score falls from 0.46 to 0.00417.

Compared with `O=C(C/C=N/OCc1ccccc1F)c1cnc(-c2ccc(Cl)cc2)s1`, `Cc1cc2oc(C(=O)N(Cc3ccccc3)C3CCS(=O)(=O)C3)cc(=O)c2cc1Cl` (stereo not drawn) is higher in z-score: -0.147 for the first, -0.141 for the second.

First: O=C(Nc1ccc(NC(=O)C23CC4CC(CC(C4)C2)C3)cc1)c1cc(F)c(F)cc1Cl
Second: COc1ccc(C(=O)N(CC2CCCO2)C(C(=O)NCCC(C)C)c2ccc(C)cc2)cc1OC (stereo not drawn)
The z-score of the first is lower: -0.315 for the first, -0.0543 for the second.

`CCOC(=O)C(CCCOc1ccccc1C)C(=O)OCC` gave a z-score of 0.000651.

With `Cc1ccccc1C(=O)NC(=S)NCCc1ccccc1` the z-score was active: 6.68.
